# According to PMC10726135:
# Some of the results follow. At the low end of the ranking, values are background and their order means little. The protein was read in a cell extract, so binding may be indirect.
# Biological target: T1, HNF4alpha8 (COS-7 nuclear extract) (UniProt P41235-5)
# T1 sequence: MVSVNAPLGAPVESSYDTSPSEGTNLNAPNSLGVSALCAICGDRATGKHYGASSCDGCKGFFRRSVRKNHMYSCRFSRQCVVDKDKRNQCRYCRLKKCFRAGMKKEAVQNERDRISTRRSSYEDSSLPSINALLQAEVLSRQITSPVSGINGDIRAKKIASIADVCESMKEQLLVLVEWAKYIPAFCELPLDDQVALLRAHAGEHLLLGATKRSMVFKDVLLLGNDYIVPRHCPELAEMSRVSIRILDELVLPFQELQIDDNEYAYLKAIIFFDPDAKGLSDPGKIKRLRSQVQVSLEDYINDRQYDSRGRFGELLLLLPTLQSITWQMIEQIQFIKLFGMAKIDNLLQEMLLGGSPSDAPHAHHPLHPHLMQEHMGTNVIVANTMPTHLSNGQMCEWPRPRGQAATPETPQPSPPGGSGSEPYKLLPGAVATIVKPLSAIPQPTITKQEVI
# Test: protein-binding microarray
# Settings: COS-7 nuclear extract on double-stranded Agilent 4x180k PBM; binding buffer, salt, pH and temperature not given; high values mean tight binding; double strand, one strand shown; sequences stand for … in …GCCTAGGGAGATTAGAGTATCGGTCGA
row,Sequence,binding signal (log2 normalized intensity)
1,GGCAAAAGAGATAGCGAGAAGGCAGGTAGA,-1.3
2,CAGCAATCACCTACCCCCAGATTCTCTGTT,2.47
3,TGATGACTTTTGACCCCAGGGGAAACTCCA,5.06
4,TGTACAATGGAAGTGAGTCAGTTCTGTCCA,0.777
5,CTAACCCCTAACCCAGTGAATTCCTTCCTT,1.99
6,GGAGAGAGTTTGGCCCCAGTTCCCATGGAC,1.45
7,TCAGTAAATCTTAGAGAACACTCCTCCCCT,3.29
8,GGACTTGATCCAGGGCAAAGGTCATAATTT,7.95
9,GGTGAGCAGAGGGAGGACAAAGTTCTGTCC,1.44
10,GGGCGCACAAGATGCCGCCTCCCCGGGGAT,-1.29
11,GTGGTACTCCAAAGGTCAGTTTAATTTTTG,4.44
12,GGGGGTTGCAAGTCTGAGGCTGCTCTCTGT,-0.365
13,GAGATGGCCCCTCTCTTTTATTATATTGAA,1.42
14,TTGAGTTTGCTCTGCTACTAACTGCATGAC,-0.116
15,TAGTCTTATCTCAAAGGGAGATTCCTGACA,-1.2
16,GTGTATGGACTGTAATACACAAGCAATAGG,0.996
17,TAGCTCGGGGGCCCTTCCCCCCTCTGCAGC,2.13
18,GTATCAGGGCTCAGGAATGTGGGGTCAACA,3.99
19,TAGGCTGTAGAGGAGATGTGGTGGACTTTA,4.99
20,CCACTGCCTGCCTGCCAACTCCACGCCCGC,-1.34
21,GTGGAGTTGACACAGACCTGCCTCTCTCTC,-1.14
22,CTTCAAAGAAGAGCTCAGTCACAGCAGTGG,-1.41
23,TATGCCCCCCCACCCCACACACACACAGCA,6.47
24,AGACATTCTGGCAAAGCCAATCTGCTTAAA,-1.35
25,CCTGACTCATAGCTCCAGAGCCACCGCTAC,-1.42

row,Sequence,binding signal (log2 normalized intensity)
1,CACTGTAACAGTTCAAGCAGTATTTGTGCC,-0.0886
2,TGGACCCAGCTGGTAAGTGCAAGGCCCAGC,-1.32
3,ATCATTAGGGAAAATAGTGACCCTGTCTCT,2.69
4,AGTCCTGCATGTGTTCACACCACACTCTCC,-0.626
5,CCAAAAGACCACACTCATCAGGTGAGATAA,-1.44
6,AACTGTCTCTGTTGCTCAATTCTGCTGTTG,0.561
7,GATTTACCTCTGACCACTCTGCCAGGTGAC,-1.27
8,AGAGAGCCAGATGAAGCTGCAGCCTTAAGA,-1.45
9,TCCCTTTGTCTCCAGGCCCTGGGATTGGCT,-1.12
10,AGAATAAATCTGTTAGCAGAGCAATTACTC,-1.3
11,TTTTTACCATCTCCAACATGACCACCTGGT,0.78
12,GCAAGTATTTCACCCCAGAGGCTAAATGAC,0.436
13,ACTGATTCCAAAGGAAATCACATAGTAACA,-1.24
14,GTCAGTTCATTAAAAAAAAAAAAAAATACT,-1.35
15,AACCTAGCCCCCTTTCCCTTATCTTTGTTA,2.54
16,GGAGCAATCATCGCACCTAAGGGCACCCTT,-1.06
17,TCGGCCTTTGACCTCGTGATAACGACATTC,4.33
18,TTTGCACAGTACTGATCTGGGGCCTATCTT,-1.31
19,CAAAGCCCCTTTCCACTCTACCGTCCTCCC,2.37
20,CAAGCAAACTGCAAATACAGGTGAATTTCA,-1.34
21,TAACCATACTGAGTGTTGGTCAGGACGTGA,0.876
22,ACCTTTGAGCTGAGTTCCACAGATAAGGAG,-1.32
23,TAAGTGGAATGTTGCTGTGCTGCCCTCTTG,3.03
24,TTGTCTGACTGTGATACCAGGGGTCATTTT,5
25,GATAACAGCTTGATAATCCCCATGGGACCA,-1.23

row,Sequence,binding signal (log2 normalized intensity)
1,CAATGTGACTGGAGCAGAGCGATCAAAGGT,1.37
2,TTACCCGCTTAAGAGTGAATTCTGCAGCAG,-1.09
3,AGCCTGCCCTCCTAGGGACAGGTGCGACGA,-1.29
4,GTCACGTGTGACCAAGGACAAACTGAGGAG,-1.38
5,AACAGAGATTTGCAGCTCAAAGTGCTTTTC,-0.531
6,GAAAAACTGAGCTTTAGATAGCTGTTAAAT,-0.552
7,AGTCAGAAGAACTGATTCCAAAGGAAATCA,-1.32
8,TTAACAAGCATTTTGTTCCCATTGATCATT,1.72
9,TATGGCCTTTCTTCATTGTTCGCATACCTC,1.22
10,AATGTCTGGAAGTTCTTCCTTAAGTCTAAC,0.865
11,TTTCTCTCCTAAGCAGGACAGCAGAGTGGA,-1.13
12,GCCTTCCCCTGCCACTTTCACAAATCATTA,0.197
13,AAAGCTTTTTGATTGCTTATAGCTTGCTTC,-1.25
14,AGCTGGGCTATACAATTCCAGCAAGGATGG,-1.37
15,CAATGAACAAAGGTCGGTGGTATGTGTGTG,3.36
16,ATGAGTGACCTTTATCCAGTTCTGTGTACA,3.78
17,TGGTGCTTTTGATATTGTTGTAAAGCAGTG,1.98
18,AAAGCTGGCTGGCGGCTAGTGTACAGGTGA,0.565
19,ACAGAGAAGGCCCTGAACTCCCAGCCTCCA,-1.26
20,TGTGCAGAGGAGGGGGCAGGAGCCCAAGAA,-1.33
21,AGAGTTAATCTGTTTACACAGTGAGATGGC,-0.91
22,ACAAGATCTTTGGACTATTGTGAAGTGATA,2.26
23,TTTCAAGAATGGAGAAAACAACATTCCTTG,-1.18
24,TCTCTGACTGGAAGTTGCCCGAGCTGCCCT,2.68
25,CTCTTTAGGCTGGACTCTGACCCATTCCTT,5.82

row,Sequence,binding signal (log2 normalized intensity)
1,GCATTCCTGCACACCTGCCTTTGATCAGGG,0.613
2,ACAGGAGATCAGATGGGGTGAACTTTGGAC,9.11
3,GAGAGTCCTCTTGGTTTATGTTCACCTCAG,0.661
4,AGTACCGCTCCTCTCTGTATTCCCTCTCTT,0.898
5,CTGAGCAGGGGACTAAGAGCAGCCTGACTA,-1.29
6,CTAAGCAGCGAAGCTGTGTCAGGCATTGTA,-0.633
7,TCTGATGAGTCCCCCGGCTCTACGCAAGTG,2.46
8,ACGAATGGGCAAAACATTCCTAAACAAGGG,-1.22
9,ACGCTCCCAGTATGAGCGGCGCTGACCCCG,5.07
10,CGCAAGCATATCTCTAGATCTCAGTTGGTC,1.51
11,AGGCTAAGGCAGGAGAATCGCTTGAACCCA,2.11
12,GACCTAGAAGCCAGGGACCAGGAAGGCAGT,-1.39
13,CGCCCGCGCCGGCCTCGGTCCTCGCTCGCC,-1.3
14,AAAGCTTCTGCGGAAATAATTGATTCAGGT,0.0259
15,GGAGGAGCTGTTTGACATCCAAAGTTTCCT,0.202
16,GCAGCTGAGGATTGTCAGGCCAGTAGGTCA,1.91
17,ATTCATAAAATTACGCCACAGAGTTGCTGT,-1.17
18,ATTAAGATCAAAGAATTCCTAATAATACTG,-1.33
19,TGAGTTCTGTCCTTTGTCCCACATCTGTGA,1.97
20,ACCCTCAGGCTCCACCGGATGGATAGGAAT,-1.41
21,GTGCCGTGAGGGGTTATGGAGAGTGGAAGA,-1.37
22,ATCTTTATCTTTTCACTTTTTCCCTGCATG,1.04
23,TATCTTGTGACCTTTGACTCATTATCCCCC,7.09
24,GGTTTTCACAACCTCCCTTTGAAGGAGCCA,-1.36
25,AAACCTTTAATGATGAGTCCAAGTTCCACA,2.9

row,Sequence,binding signal (log2 normalized intensity)
1,CCCCACTCCACCTACGCTACGCACCAGGCA,0.531
2,TATATTCAACCCCCACTTCCTGACTTGGCC,3.85
3,TGCAGAGCTTAGTTTGCCACGGTCAGCAAT,-1.31
4,CAACCCAAAGCATGTCCAGAATCCTAACTG,-1.29
5,GAAATCTCAGTCAAATGCAAAGGCAAACAG,-1.14
6,AATCGCATTGCAAAATCCATCTAAATGGCA,-1.33
7,GATGAATAGGGACGTTCTACTTGTTAGTAA,1.66
8,TGATCTTTGAAACATAACAGCAACAACACA,0.241
9,ATGGTGGAGGGTCTTGCTTTGATGTTGATG,1.31
10,GCTCTAGACATCGACCTTTGTGGGCTTCAG,3.19
11,GGGGAAAGAGCTGAGGAAAAAAGTTTGAAA,-1.36
12,AATCAACCTTTGATCGTTTGCATGCAGGGC,3.98
13,CAGAATTACTGACTCCACAGTGGGGCAGAT,-1.23
14,GACAGCAGTAGAAAACAGAGAAGCCGTGGT,-1.38
15,AAAGCCTAGGCTCCAGGGCACTGCCCTTTG,3.51
16,AAGAAAGGGGAGATAATGCCAGAAAGGTCT,-1.31
17,GATACAACGGTTCAAAGGACAGACTTTGGA,4.08
18,CAAAACCCAGTTCATAGGTCAATTCTTTGA,3.58
19,GTGTGTGGCCTGCACAGTTGCACAATGTCA,0.815
20,TTTGTAAGTACATTAATATACTGTGTATAC,1.44
21,TACTCTCTCTTCTGGAGGAGGATCAGGTTT,-0.165
22,AAGTGCGTCCTGTGGCAAAGGTGAATGACC,2.99
23,CGCACCTGCCTGTCTCACCTCGCTATCACC,-1.18
24,GGAAAACAGGCTCAGCAAAGTCAGGTCAGT,0.163
25,TCACAGTGTGGGGCAAATCTGAGGTCAAAG,2.51

row,Sequence,binding signal (log2 normalized intensity)
1,AATGCCAAGGACTGAAAGAACACAGCGCAG,-1.31
2,AGGGATGGCATCACCTTTGGTCAGCCCACT,2.79
3,GGTCCACCCGTCCGCTTGATGCCTGTTGCT,0.303
4,TGAAGATGCCTGATAAAGGGGGCAAAGGGC,6.94
5,TTGTTTATTCAGAGTTAGCTAAGCTTCACT,-1.25
6,GAGCAGTCAAACTGGTTTCTTGTCTGCCCC,3.57
7,ACCTCTCTGATGCCATGATAAGCAGTGTGG,0.716
8,CACTATTGTGCTAATATAAGTCATTGCCAT,0.705
9,AATGGCTAAGGGCATCTACTTTTAAAACGC,-1.31
10,TCATTTGGGGCGGGCGGTCGGAGTCCACGT,3.01
11,TAAGTATGACCAGCAGGGTGACCAGTGGAC,1.87
12,ACCTGGGTGTAGGTGCTGCACCTTGAAACC,2.83
13,TGAACAATTGATTTATAGCCTTTTTGCCCA,1.33
14,CTTTGTGGCAGGAGGAGCTGTTTGACATCC,0.44
15,ACAACACACCACCTGCTACTCCCTTTGGAA,-1.37
16,TGCTCACGTTTTCCTGCTGACCCTCTCCCC,4.22
17,AAGAGCTGAGGAAAAAAGTTTGAAAATGCC,-1.18
18,ATTTGCTCTGTCATCAACGTATCTGCAGGC,0.072
19,CACTCGCCTGACTCCCTGACGCCATCTGGC,-1.28
20,GCTGCACAGTGGGGAGGGCAGGGTCAGAAC,1.42
